Measurements from a collection of fitness landscapes (doi:10.1126/science.1257360).
The list shows a part of the results.

B1: PhoQ; a variant is named by its letters at X, in order, P23837 (parent)
chain: MKKLLRLFFPLSLRVRFLLATAAVVLVLSLAYGMVALIGYSVSFDKTTFRLLRGESNLFYTLAKWENNKLHVELPENIDKQSPTMTLIYDENGQLLWAQRDVPWLMKMIQPDWLKSNGFHEIEADVNDTSLLLSGDHSIQQQLQEVREDDDDAEMTHSVAVNVYPATSRMPKLTIVVVDTIPVELKSSYMVWSWFIYVLSANLLLVIPLLWVAAWWSLRPIEALAKEVRELEEHNRELLNPATTRELTSLVRNLNRLLKSERERYDKYRTTLTDLTHSLKTPLXXLQXXLRSLRSEKMSVSDAEPVMLEQISRISQQIGYYLHRASMRGGTLLSRELHPVAPLLDNLTSALNKVYQRKGVNISLDISPEISFVGEQNDFVEVMGNVLDNACKYCLEFVEISARQTDEHLYIVVEDDGPGIPLSKREVIFDRGQRVDTLRPGQGVGLAVAREITEQYEGKIVAGESMLGGARMEVIFGRQHSAPKDE

Variants of: B1
Test: enrichment ratio after two sorts for PhoP signalling (ratio (wild type AVST 3.29)); higher = more functional
Conditions: with PhoP (E. coli)

Row | Variant | enrichment ratio
1 | YVWN | ≤ 0.25
2 | GFFI | ≤ 0.25
3 | SIKD | ≤ 0.25
4 | YRSK | ≤ 0.25
5 | ITLN | 1.49
6 | IEDV | ≤ 0.25
7 | SQFE | ≤ 0.25
8 | YRYF | ≤ 0.25
9 | TNFY | ≤ 0.25
10 | NLKN | ≤ 0.25
11 | HVIF | ≤ 0.25
12 | KPVN | ≤ 0.25
13 | QFQG | ≤ 0.25
14 | VVYS | ≤ 0.25
15 | NWSK | ≤ 0.25
16 | FWER | ≤ 0.25
17 | AFEP | ≤ 0.25
18 | RPFM | ≤ 0.25
19 | DQTG | ≤ 0.25
20 | KSMT | ≤ 0.25
21 | KQPV | ≤ 0.25

Row | Variant | enrichment ratio
22 | NMTP | ≤ 0.25
23 | FDYT | ≤ 0.25
24 | RNPR | ≤ 0.25
25 | IPTN | ≤ 0.25
26 | AQYP | ≤ 0.25
27 | HRRA | ≤ 0.25
28 | GSLA | 6.7
29 | DRTF | ≤ 0.25
30 | DQFF | ≤ 0.25
31 | WHFW | ≤ 0.25
32 | QSAG | ≤ 0.25
33 | EERK | ≤ 0.25
34 | RTTQ | ≤ 0.25
35 | VDED | ≤ 0.25
36 | HDDN | ≤ 0.25
37 | GNDS | ≤ 0.25
38 | QIFN | ≤ 0.25
39 | GCFW | ≤ 0.25
40 | NMDE | ≤ 0.25
41 | LMAR | ≤ 0.25
42 | GKWN | ≤ 0.25

Row | Variant | enrichment ratio
43 | GLYT | ≤ 0.25
44 | DRDP | ≤ 0.25
45 | IIDS | ≤ 0.25
46 | WQRY | ≤ 0.25
47 | QSQQ | ≤ 0.25
48 | LVDA | ≤ 0.25
49 | VQIC | ≤ 0.25
50 | NKSW | ≤ 0.25
51 | AGSQ | 12.9
52 | QCYV | ≤ 0.25
53 | YNLL | 10.8
54 | NRIK | ≤ 0.25
55 | KRHP | ≤ 0.25
56 | NDRG | ≤ 0.25
57 | CVLC | ≤ 0.25
58 | PQPV | ≤ 0.25
59 | LWFV | ≤ 0.25
60 | GCHR | ≤ 0.25
61 | WFVP | ≤ 0.25
62 | PDCR | ≤ 0.25
63 | KDKT | ≤ 0.25

Row | Variant | enrichment ratio
64 | MSWY | 5.91
65 | QDGG | ≤ 0.25
66 | ESCP | ≤ 0.25
67 | SKNW | ≤ 0.25
68 | TLYN | 0.821
69 | LGVN | ≤ 0.25
70 | FHPV | ≤ 0.25
71 | VWEH | ≤ 0.25
72 | PSAH | ≤ 0.25
73 | AIQT | ≤ 0.25
74 | DMVS | ≤ 0.25
75 | KIYI | ≤ 0.25
76 | EISM | ≤ 0.25
77 | AVCP | ≤ 0.25
78 | QTGH | ≤ 0.25
79 | GGDL | ≤ 0.25
80 | SDSR | ≤ 0.25
81 | MCWI | 18.3
82 | ANCH | 4.77
83 | DELM | ≤ 0.25
84 | IYCC | ≤ 0.25
